Reference: PubChem BioAssay AID1814 (Broad Institute, 2009)
Screen size: about 300,000 compounds; about 22,000 (7.3%) were called active. The inconclusive results got no clear call from the source; some entries with a clear call stand among them for comparison. No stated cut-off is given here; in the data, active means activity score below about -60%; inconclusive means mostly about -28% to -61%; inactive means positive scores.

Assay: Activators via SNCA 5'UTR binding, MLPCN (AID 1814)
Settings: alpha-synuclein 5'UTR reporter, activators screen; hits give low values; tested at 7.5 µM
With `O=C(Nc1ccc(Cl)cc1)c1ccc(OCC2CCCO2)cc1` (configuration not stated) the activity score was active: -202%.
For `Cc1cccc(Nc2nc(-c3ccc4c(c3)OCCO4)cs2)c1`, the activity score was active: -203%.
In the case of `CCCC1=Nc2cc(C(=O)NCCCOCC)ccc2Sc2ccccc21`, the activity score is reported as inactive: 66.5%.
With `COc1ccccc1CNS(=O)(=O)c1ccc(-c2cc(C)no2)cc1` the activity score was inactive: 80%.
With `Cc1ccc(-c2csc(NC(=O)c3ccc4c(=O)n5c(nc4c3)CCCCC5)n2)cc1` the activity score was inconclusive: -49.5%.
In the case of `CC(NC(=O)/C(C#N)=C/c1ccc([N+](=O)[O-])o1)c1ccccc1` (configuration not stated), the activity score is reported as inconclusive: -54.3%.
For `CCOc1ccc(C(=O)NC(=S)Nc2cccc(S(=O)(=O)NC3=NCCC3)c2)cc1`, the activity score was inactive: 111%.
In the case of `CC(C)NC(=O)c1ccccc1NC(=O)/C=C/c1cccc([N+](=O)[O-])c1`, the activity score is reported as inactive: 63%.
In the case of `O=C(Cc1ccc2c(c1)CCCC2)Nc1ccc2ccccc2c1`, the activity score is reported as active: -161%.
With `Cc1cc2nc(-c3ccc(SCC(=O)Nc4ccc(S(=O)(=O)NC5CC5)cc4)nc3)[nH]c2cc1C` the activity score was active: -116%.
For `O=C(/C=C/c1ccco1)NC(=S)Nc1nc(-c2ccc3ccccc3c2)cs1`, the activity score was active: -94%.
With `Cc1ccc(S(=O)(=O)C(NC(=O)c2ccccc2)=C(Cl)Cl)cc1` the activity score was inconclusive: -59.9%.
For `CCOc1cc(/C=N\NC(N)=O)cc(Br)c1OC(C)C`, the activity score was inactive: 61.8%.
In the case of `CCc1nnc(NC(=O)Cn2nc(-c3ccccc3OC)ccc2=O)s1`, the activity score is reported as inconclusive: -55.4%.
For `CCOC(=O)C1CCCCN1C(=O)CCc1c(C)nc2ncnn2c1C` (configuration not stated), the activity score was inactive: 60.8%.
In the case of `O=C(NCCc1ccccc1)c1c[nH]c2c(F)cccc2c1=O`, the activity score is reported as active: -93.5%.
With `N#CC(C(=O)C1CCCCC1)c1nc2ccccc2[nH]1` (configuration not stated) the activity score was inconclusive: -41.5%.
With `O=[N+]([O-])c1ccc(NCc2ccc3c(c2)OCO3)cc1` the activity score was inconclusive: -59.1%.
With `CCOc1ccc(C(=O)NC(=S)Nc2cccnc2)cc1` the activity score was active: -135%.
In the case of `CC1(C)CC(=O)C(C(N)=NC(=O)c2ccccc2)=C(O)C1`, the activity score is reported as inconclusive: -57.9%.
For `CC1(C)Cc2c(c(N3CCOCC3)nc3sc4c(NCc5ccccc5)nnnc4c23)CS1`, the activity score was inactive: 68.2%.
With `COc1ccccc1CCC(=O)Nc1ccc(C)cc1Cl` the activity score was active: -160%.
For `Cc1ccc(OC(=O)c2sc3ncn(C)c(=O)c3c2C)cc1`, the activity score was active: -120%.
With `NC(=S)N=Nc1ccc(NN=C(N)N)cc1` the activity score was inactive: 68.4%.
With `O=C(COc1ccc(C(=O)c2ccccc2)cc1)NCc1ccc(F)cc1` the activity score was inactive: 113%.
For `CC(C(=O)O/N=C(\N)c1ccccn1)c1ccc([N+](=O)[O-])cc1` (configuration not stated), the activity score was inconclusive: -54.1%.
In the case of `Cc1ccc(C)c2[nH]c(=O)c(C(c3nnnn3Cc3ccccc3)N3CCc4ccccc4C3)cc12` (configuration not stated), the activity score is reported as inconclusive: -38%.
In the case of `O=c1c(-c2ccco2)[n+]([O-])c2ccccc2n1OCc1ccccc1[N+](=O)[O-]`, the activity score is reported as inconclusive: -57.7%.
For `Cc1ccc(-n2c(P(C)(=O)O)nc3ccccc32)cc1`, the activity score was inconclusive: -49.2%.
With `COc1cccc(NC(=O)NCCc2ccc(Cl)cc2)c1` the activity score was inconclusive: -57.1%.
With `CN(CC1COc2ccccc2O1)C(=S)Nc1ccccc1F` (configuration not stated) the activity score was inconclusive: -30.1%.
For `CC1(C)NC(=O)N(CC(=O)Nc2nc(-c3ccc(F)cc3)cs2)C1=O`, the activity score was inconclusive: -50.9%.
With `Cc1ccc(NC(=S)N/N=C2\CCCCC2C)cc1` (configuration not stated) the activity score was inconclusive: -57.9%.
In the case of `Cc1ccc2nc(N(CCCN(C)C)C(=O)c3cc(-c4cccs4)nc4ccccc34)sc2c1`, the activity score is reported as inactive: 67.1%.
With `Cc1ccc(C(=O)Nc2cccc(C(F)(F)F)c2)cc1Nc1ncnc2nc[nH]c12` the activity score was inactive: 77.9%.
For `CC(/C=N/NC(=O)c1ccccc1C)=C\c1ccccc1`, the activity score was active: -136%.
With `Cc1csc(NC(=O)C2COc3ccccc3O2)n1` (configuration not stated) the activity score was inactive: 62.3%.
With `COCCN1Cc2cccc(C(=O)Nc3ccc(C)c(C)c3)c2C1=O` the activity score was inconclusive: -49.7%.
For `CCC(=O)Nc1nc2ccc(NC(C)=O)cc2s1`, the activity score was inconclusive: -54.4%.
For `CC1Cc2cc(/C(O)=C3/C(=O)C(=O)N(CC4CCCO4)C3c3ccco3)ccc2O1` (configuration not stated), the activity score was active: -61.6%.
With `CC(=O)Nc1cccc(C(=O)/C=C/c2ccc(N(C)C)cc2)c1` the activity score was active: -71.3%.
In the case of `Cc1ccc(S(=O)(=O)Nc2ccccc2-c2ccccc2)cc1`, the activity score is reported as inactive: 54%.
With `CN(/N=C/c1ccncc1)c1cnn(-c2ccc(F)c(Cl)c2)c(=O)c1Cl` the activity score was inconclusive: -37.5%.
In the case of `Cc1nc(NC(=O)c2ccco2)sc1-c1csc(Nc2ccc(Cl)cc2)n1`, the activity score is reported as active: -69.7%.
In the case of `CCn1nc([N+](=O)[O-])c(C(C#N)c2nc3ccccc3n2C)c(Cl)c1=O` (configuration not stated), the activity score is reported as inconclusive: -46.2%.
With `CC(C)CSc1nsc(N)n1` the activity score was inconclusive: -57.6%.
In the case of `O=C1CCCc2c1cc(-c1ccccc1)n2-c1ccccc1`, the activity score is reported as inconclusive: -38.1%.
